Data published in the GPR68 mutational scans of Howard et al. (2025).
The least precise scores are not listed. Not listed are two conditions whose scores span a narrow range. Read del as a deletion of the residues named and ins as an insertion between two positions. For part of these data: The data file names ogerin without a concentration.

B1: GPR68, Q15743 (parent)
chain: MGNITADNSSMSCTIDHTIHQTLAPVVYVTVLVVGFPANCLSLYFGYLQIKARNELGVYLCNLTVADLFYICSLPFWLQYVLQHDNWSHGDLSCQVCGILLYENIYISVGFLCCISVDRYLAVAHPFRFHQFRTLKAAVGVSVVIWAKELLTSIYFLMHEEVIEDENQHRVCFEHYPIQAWQRAINYYRFLVGFLFPICLLLASYQGILRAVRRSHGTQKSRKDQIQRLVLSTVVIFLACFLPYHVLLLVRSVWEASCDFAKGVFNAYHFSLLLTSFNCVADPVLYCFVSETTHRDLARLRGACLAFLTCSRTGRAREAYPLGAPEASGKSGAQGEEPELLTKLHPAFQTPNSPGSGGFPTGRLA

Columns and labels:
[1] = variants of: B1; test: cAMP reporter score (Enrich2 score, wild type = 0); higher = more signal; HEK293T, FACS bins
[2] = variants of: B1; test: surface expression score (Enrich2 score, wild type = 0); higher = more signal; HEK293T, FACS bins

Variant | cAMP reporter score ([1]; pH 5.5) | cAMP reporter score ([1]; pH 6.5, modulator: ogerin) | surface expression score [2] | cAMP reporter score ([1]; pH 6) | cAMP reporter score ([1]; pH 6, modulator: ogerin)
MGNITADNSSMSCTIDHTIHQTLAPVVYVTVLVVGFPANCLSLYFGYLQIKARNELGVYLCNLTVADLFYICSLPFWLQYVLQHDNWSHGDLSCQVCGILLYENIYISVGFLCCISVDRYLAVAHPFRFHQFRTLKAAVGVSVVIWAKELLTSIYFLMHEEVIEDENQHRVCFEHYPIQAWFRAINYYRFLVGFLFPICLLLASYQGILRAVRRSHGTQKSRKDQIQRLVLSTVVIFLACFLPYHVLLLVRSVWEASCDFAKGVFNAYHFSLLLTSFNCVADPVLYCFVSETTHRDLARLRGACLAFLTCSRTGRAREAYPLGAPEASGKSGAQGEEPELLTKLHPAFQTPNSPGSGGFPTGRLA [Q182F] | -0.501 | -0.947 | -0.651 | – | –
MGNITADNSSMSCTIDHTIHQTLAPVVYVTVLVVGFPANCLSLYFGYLQIKARNELGVYLCNLTVADLFYICSLPFWLQYVLQHDNWSHGDLSCQVCGILLYENIYISVGFLCCISVDRYLAVAHPFRFHQFRTLKAAVGVSVVIWAKELLTSIYFLMHEEVIEDENQHRVCFEHYPIQAWGRAINYYRFLVGFLFPICLLLASYQGILRAVRRSHGTQKSRKDQIQRLVLSTVVIFLACFLPYHVLLLVRSVWEASCDFAKGVFNAYHFSLLLTSFNCVADPVLYCFVSETTHRDLARLRGACLAFLTCSRTGRAREAYPLGAPEASGKSGAQGEEPELLTKLHPAFQTPNSPGSGGFPTGRLA [Q182G] | 0.572 | -0.974 | 0.15 | -0.656 | -0.25
MGNITADNSSMSCTIDHTIHQTLAPVVYVTVLVVGFPANCLSLYFGYLQIKARNELGVYLCNLTVADLFYICSLPFWLQYVLQHDNWSHGDLSCQVCGILLYENIYISVGFLCCISVDRYLAVAHPFRFHQFRTLKAAVGVSVVIWAKELLTSIYFLMHEEVIEDENQHRVCFEHYPIQAWHRAINYYRFLVGFLFPICLLLASYQGILRAVRRSHGTQKSRKDQIQRLVLSTVVIFLACFLPYHVLLLVRSVWEASCDFAKGVFNAYHFSLLLTSFNCVADPVLYCFVSETTHRDLARLRGACLAFLTCSRTGRAREAYPLGAPEASGKSGAQGEEPELLTKLHPAFQTPNSPGSGGFPTGRLA [Q182H] | 0.056 | 1.37 | 1.26 | 0.519 | 0.703
MGNITADNSSMSCTIDHTIHQTLAPVVYVTVLVVGFPANCLSLYFGYLQIKARNELGVYLCNLTVADLFYICSLPFWLQYVLQHDNWSHGDLSCQVCGILLYENIYISVGFLCCISVDRYLAVAHPFRFHQFRTLKAAVGVSVVIWAKELLTSIYFLMHEEVIEDENQHRVCFEHYPIQAWIRAINYYRFLVGFLFPICLLLASYQGILRAVRRSHGTQKSRKDQIQRLVLSTVVIFLACFLPYHVLLLVRSVWEASCDFAKGVFNAYHFSLLLTSFNCVADPVLYCFVSETTHRDLARLRGACLAFLTCSRTGRAREAYPLGAPEASGKSGAQGEEPELLTKLHPAFQTPNSPGSGGFPTGRLA [Q182I] | 0.373 | -0.41 | -2.7 | -0.377 | -0.626
